# In the supplement of paper PMC8728848:
# The list shows a part of the results.
# B1: Pwp3 (Candida glabrata) (protein)
# chain: MGSSHHHHHHSSGLVPRGSHMASKNPVDFTTVCQFPDNFSKKPGFLATTARLGLWITGNSYKELLNYPGTFTLTTQQASTTTPNIQLRGTDLFTTIYGLTVYPLYLLVELQGYFVPTQSGMYTFSLTGSDDAAIIFIGNPSTFPCDAFKTWPQATANDITVTDSINPSRTLYMVKGVAYPLRIAYYNGLGNGVLNAAFTDPSGTKRTDWNGYIWQYDQCSTCTYK
# Tests used:
# Assay in all cases: glycan array binding signal (z-score within array); higher = stronger binding
# Settings in all cases: glycan notation: IUPAC condensed, linker removed
# GlcNAc(b1-3)Gal(b1-4)Glc = molecular target: GlcNAc(b1-3)Gal(b1-4)Glc
# Summary of the method: (§1)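 Glycan array data came from 3228 arrays in the Consortium for Functional Glycomics database, and only arrays with an available protein sequence were kept. Glycan names were put into IUPAC-condensed notation, and columns mapping to the same glycan were averaged. The binding signal is a within-array Z-score, averaged across arrays of one protein sequence run at different concentrations or buffers and across linkers. A negative Z-score can be read as non-binding.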
# [1] = molecular target: GlcNAc(b1-3)Gal(b1-4)GlcNAc
# Summary of the method: as §1
# [2] = molecular target: GlcNAc(b1-3)Gal(b1-4)GlcNAc(b1-2)Man(a1-3)[GlcNAc(b1-3)Gal(b1-4)GlcNAc(b1-2)Man(a1-6)]Man(b1-4)GlcNAc(b1-4)GlcNAc
# Summary of the method: as §1
# [3] = molecular target: GlcNAc(b1-3)Gal(b1-4)GlcNAc(b1-2)Man(a1-3)[GlcNAc(b1-3)Gal(b1-4)GlcNAc(b1-2)Man(a1-6)]Man(b1-4)GlcNAc(b1-4)[Fuc(a1-6)]GlcNAc
# Summary of the method: as §1
# [4] = molecular target: GlcNAc(b1-3)Gal(b1-4)GlcNAc(b1-2)[GlcNAc(b1-3)Gal(b1-4)GlcNAc(b1-6)]Man(a1-6)[GlcNAc(b1-3)Gal(b1-4)GlcNAc(b1-2)Man(a1-3)]Man(b1-4)GlcNAc(b1-4)GlcNAc
# Summary of the method: as §1
# [5] = molecular target: GlcNAc(b1-3)Gal(b1-4)GlcNAc(b1-3)Gal(b1-4)GlcNAc
# Summary of the method: as §1
# [6] = molecular target: GlcNAc(b1-3)Gal(b1-4)GlcNAc(b1-3)Gal(b1-4)GlcNAc(b1-2)Man(a1-3)[GlcNAc(b1-3)Gal(b1-4)GlcNAc(b1-3)Gal(b1-4)GlcNAc(b1-2)Man(a1-6)]Man(b1-4)GlcNAc(b1-4)GlcNAc
# Summary of the method: as §1
# [7] = molecular target: GlcNAc(b1-3)Gal(b1-4)GlcNAc(b1-3)Gal(b1-4)GlcNAc(b1-2)Man(a1-3)[GlcNAc(b1-3)Gal(b1-4)GlcNAc(b1-3)Gal(b1-4)GlcNAc(b1-2)Man(a1-6)]Man(b1-4)GlcNAc(b1-4)[Fuc(a1-6)]GlcNAc
# Summary of the method: as §1
# [8] = molecular target: GlcNAc(b1-3)Gal(b1-4)GlcNAc(b1-3)Gal(b1-4)GlcNAc(b1-2)[GlcNAc(b1-3)Gal(b1-4)GlcNAc(b1-3)Gal(b1-4)GlcNAc(b1-6)]Man(a1-6)[GlcNAc(b1-3)Gal(b1-4)GlcNAc(b1-3)Gal(b1-4)GlcNAc(b1-2)Man(a1-3)]Man(b1-4)GlcNAc(b1-4)[Fuc(a1-6)]GlcNAc
# Summary of the method: as §1
# [9] = molecular target: GlcNAc(b1-3)Gal(b1-4)GlcNAc(b1-3)Gal(b1-4)GlcNAc(b1-3)Gal(b1-4)GlcNAc(b1-2)Man(a1-3)[GlcNAc(b1-3)Gal(b1-4)GlcNAc(b1-3)Gal(b1-4)GlcNAc(b1-3)Gal(b1-4)GlcNAc(b1-2)Man(a1-6)]Man(b1-4)GlcNAc(b1-4)GlcNAc
# Summary of the method: as §1
# [10] = molecular target: GlcNAc(b1-3)Gal(b1-4)GlcNAc(b1-3)Gal(b1-4)GlcNAc(b1-3)Gal(b1-4)GlcNAc(b1-2)Man(a1-3)[GlcNAc(b1-3)Gal(b1-4)GlcNAc(b1-3)Gal(b1-4)GlcNAc(b1-3)Gal(b1-4)GlcNAc(b1-2)Man(a1-6)]Man(b1-4)GlcNAc(b1-4)[Fuc(a1-6)]GlcNAc
# Summary of the method: as §1
# [11] = molecular target: GlcNAc(b1-3)Gal(b1-4)GlcNAc(b1-3)Gal(b1-4)GlcNAc(b1-3)Gal(b1-4)GlcNAc(b1-2)[GlcNAc(b1-3)Gal(b1-4)GlcNAc(b1-3)Gal(b1-4)GlcNAc(b1-3)Gal(b1-4)GlcNAc(b1-6)]Man(a1-6)[GlcNAc(b1-3)Gal(b1-4)GlcNAc(b1-3)Gal(b1-4)GlcNAc(b1-3)Gal(b1-4)GlcNAc(b1-2)Man(a1-3)]Man(b1-4)GlcNAc(b1-4)[Fuc(a1-6)]GlcNAc
# Summary of the method: as §1
# [12] = molecular target: GlcNAc(b1-3)Gal(b1-4)GlcNAc(b1-3)Gal(b1-4)GlcNAc(b1-3)Gal(b1-4)GlcNAc(b1-3)Gal(b1-4)GlcNAc(b1-2)Man(a1-3)[GlcNAc(b1-3)Gal(b1-4)GlcNAc(b1-3)Gal(b1-4)GlcNAc(b1-3)Gal(b1-4)GlcNAc(b1-3)Gal(b1-4)GlcNAc(b1-2)Man(a1-6)]Man(b1-4)GlcNAc(b1-4)GlcNAc
# Summary of the method: as §1
# [13] = molecular target: GlcNAc(b1-3)Gal(b1-4)GlcNAc(b1-3)Gal(b1-4)GlcNAc(b1-3)Gal(b1-4)GlcNAc(b1-3)Gal(b1-4)GlcNAc(b1-2)Man(a1-3)[GlcNAc(b1-3)Gal(b1-4)GlcNAc(b1-3)Gal(b1-4)GlcNAc(b1-3)Gal(b1-4)GlcNAc(b1-3)Gal(b1-4)GlcNAc(b1-2)Man(a1-6)]Man(b1-4)GlcNAc(b1-4)[Fuc(a1-6)]GlcNAc
# Summary of the method: as §1
# [14] = molecular target: GlcNAc(b1-3)Gal(b1-4)GlcNAc(b1-3)Gal(b1-4)GlcNAc(b1-3)Gal(b1-4)GlcNAc(b1-3)Gal(b1-4)GlcNAc(b1-2)[GlcNAc(b1-3)Gal(b1-4)GlcNAc(b1-3)Gal(b1-4)GlcNAc(b1-3)Gal(b1-4)GlcNAc(b1-3)Gal(b1-4)GlcNAc(b1-6)]Man(a1-6)[GlcNAc(b1-3)Gal(b1-4)GlcNAc(b1-3)Gal(b1-4)GlcNAc(b1-3)Gal(b1-4)GlcNAc(b1-3)Gal(b1-4)GlcNAc(b1-2)Man(a1-3)]Man(b1-4)GlcNAc(b1-4)[Fuc(a1-6)]GlcNAc
# Summary of the method: as §1
# [15] = molecular target: GlcNAc(b1-3)Gal(b1-4)GlcNAc(b1-3)Gal(b1-4)GlcNAc(b1-3)GalNAc
# Summary of the method: as §1
# [16] = molecular target: GlcNAc(b1-3)Gal(b1-4)GlcNAc(b1-3)GalNAc
# Summary of the method: as §1
# [17] = molecular target: GlcNAc(b1-3)Gal(b1-4)GlcNAc(b1-3)[GlcNAc(b1-3)Gal(b1-4)GlcNAc(b1-3)]GalNAc
# Summary of the method: as §1
# [18] = molecular target: GlcNAc(b1-3)Gal(b1-4)GlcNAc(b1-6)[Gal(b1-3)]GalNAc
# Summary of the method: as §1
# [19] = molecular target: GlcNAc(b1-3)Gal(b1-4)GlcNAc(b1-6)[GlcNAc(b1-3)Gal(b1-3)]GalNAc
# Summary of the method: as §1
# [20] = molecular target: GlcNAc(b1-3)Gal(b1-4)GlcNAc(b1-6)[GlcNAc(b1-3)]Gal(b1-4)GlcNAc
# Summary of the method: as §1
# GlcNAc(b1-3)GalNAc = molecular target: GlcNAc(b1-3)GalNAc
# Summary of the method: as §1
# GlcNAc(b1-3)Man = molecular target: GlcNAc(b1-3)Man
# Summary of the method: as §1
# [21] = molecular target: GlcNAc(b1-3)[GlcNAc(b1-4)][GlcNAc(b1-6)]GlcNAc
# Summary of the method: as §1
# [22] = molecular target: GlcNAc(b1-3)[GlcNAc(b1-6)]Gal(b1-4)GlcNAc
# Summary of the method: as §1
# [23] = molecular target: GlcNAc(b1-3)[GlcNAc(b1-6)]GalNAc
# Summary of the method: as §1
# [24] = molecular target: GlcNAc(b1-4)Gal(b1-4)GlcNAc
# Summary of the method: as §1
# GlcNAc(b1-4)GlcNAc = molecular target: GlcNAc(b1-4)GlcNAc
# Summary of the method: as §1
# [25] = molecular target: GlcNAc(b1-4)GlcNAc(b1-4)GlcNAc
# Summary of the method: as §1
# [26] = molecular target: GlcNAc(b1-4)GlcNAc(b1-4)GlcNAc(b1-4)GlcNAc(b1-4)GlcNAc
# Summary of the method: as §1
# [27] = molecular target: GlcNAc(b1-4)GlcNAc(b1-4)GlcNAc(b1-4)GlcNAc(b1-4)GlcNAc(b1-4)GlcNAc
# Summary of the method: as §1
# [28] = molecular target: GlcNAc(b1-4)[GlcNAc(b1-6)]GalNAc
# Summary of the method: as §1
# [29] = molecular target: GlcNAc(b1-6)Gal(b1-4)GlcNAc
# Summary of the method: as §1
# GlcNAc(b1-6)GalNAc = molecular target: GlcNAc(b1-6)GalNAc
# Summary of the method: as §1
# [30] = molecular target: GlcNAc6S(b1-3)Gal(b1-4)GlcNAc
# Summary of the method: as §1
# Kdn(a2-3)Gal(b1-3)GalNAc = molecular target: Kdn(a2-3)Gal(b1-3)GalNAc
# Summary of the method: as §1
# Kdn(a2-3)Gal(b1-3)GlcNAc = molecular target: Kdn(a2-3)Gal(b1-3)GlcNAc
# Summary of the method: as §1
# Kdn(a2-3)Gal(b1-4)Glc = molecular target: Kdn(a2-3)Gal(b1-4)Glc
# Summary of the method: as §1
# Kdn(a2-3)Gal(b1-4)GlcNAc = molecular target: Kdn(a2-3)Gal(b1-4)GlcNAc
# Summary of the method: as §1
# [31] = molecular target: Kdn(a2-3)Gal(b1-4)[Fuc(a1-3)]GlcNAc
# Summary of the method: as §1
# Kdn(a2-6)Gal(b1-4)GlcNAc = molecular target: Kdn(a2-6)Gal(b1-4)GlcNAc
# Summary of the method: as §1
# [32] = molecular target: Man(a1-2)Man(a1-2)Man(a1-3)Man
# Summary of the method: as §1
# [33] = molecular target: Man(a1-2)Man(a1-2)Man(a1-6)[Man(a1-3)]Man
# Summary of the method: as §1
# Man(a1-2)Man(a1-3)Man = molecular target: Man(a1-2)Man(a1-3)Man
# Summary of the method: as §1
# [34] = molecular target: Man(a1-2)Man(a1-3)[Man(a1-2)Man(a1-6)]Man
# Summary of the method: as §1
binder,measurement,setting,value
B1,glycan array binding signal (z-score),GlcNAc(b1-3)Gal(b1-4)Glc,-1.47
same,glycan array binding signal (z-score),[1],-0.334
same,glycan array binding signal (z-score),[2],-0.47
same,glycan array binding signal (z-score),[3],-0.546
same,glycan array binding signal (z-score),[4],3.27
same,glycan array binding signal (z-score),[5],-0.216
same,glycan array binding signal (z-score),[6],-0.047
same,glycan array binding signal (z-score),[7],-0.151
same,glycan array binding signal (z-score),[8],1.95
same,glycan array binding signal (z-score),[9],-0.514
same,glycan array binding signal (z-score),[10],0.739
same,glycan array binding signal (z-score),[11],1.66
same,glycan array binding signal (z-score),[12],-0.439
same,glycan array binding signal (z-score),[13],0.014
same,glycan array binding signal (z-score),[14],4.05
same,glycan array binding signal (z-score),[15],-0.648
same,glycan array binding signal (z-score),[16],-0.715
same,glycan array binding signal (z-score),[17],0.29
same,glycan array binding signal (z-score),[18],-0.326
same,glycan array binding signal (z-score),[19],-0.655
same,glycan array binding signal (z-score),[20],-0.096
same,glycan array binding signal (z-score),GlcNAc(b1-3)GalNAc,-0.946
same,glycan array binding signal (z-score),GlcNAc(b1-3)Man,-0.51
same,glycan array binding signal (z-score),[21],-0.607
same,glycan array binding signal (z-score),[22],-0.126
same,glycan array binding signal (z-score),[23],0.246
same,glycan array binding signal (z-score),[24],-0.296
same,glycan array binding signal (z-score),GlcNAc(b1-4)GlcNAc,-0.538
same,glycan array binding signal (z-score),[25],-0.649
same,glycan array binding signal (z-score),[26],-0.604
same,glycan array binding signal (z-score),[27],-0.159
same,glycan array binding signal (z-score),[28],-1.04
same,glycan array binding signal (z-score),[29],-0.165
same,glycan array binding signal (z-score),GlcNAc(b1-6)GalNAc,-0.116
same,glycan array binding signal (z-score),[30],-0.374
same,glycan array binding signal (z-score),Kdn(a2-3)Gal(b1-3)GalNAc,2.03
same,glycan array binding signal (z-score),Kdn(a2-3)Gal(b1-3)GlcNAc,-0.784
same,glycan array binding signal (z-score),Kdn(a2-3)Gal(b1-4)Glc,-0.426
same,glycan array binding signal (z-score),Kdn(a2-3)Gal(b1-4)GlcNAc,-0.913
same,glycan array binding signal (z-score),[31],-0.203
same,glycan array binding signal (z-score),Kdn(a2-6)Gal(b1-4)GlcNAc,-0.33
same,glycan array binding signal (z-score),[32],-0.103
same,glycan array binding signal (z-score),[33],-0.335
same,glycan array binding signal (z-score),Man(a1-2)Man(a1-3)Man,-0.182
same,glycan array binding signal (z-score),[34],0.072
